# The whole screen tested about 39,000 compounds, of which about 220 (0.56%) showed activity. Some of the results follow.
# System: Escherichia coli K-12 BW25113
# Assay: relative growth (OD600 normalised to plate interquartile mean) (fraction); higher = less growth inhibition, active = 0.2 or less
# Settings: 50 µM; LB; incubation time: overnight (16-24 h)
# 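Also: static incubation at 37 °C against the wild-type strain, values averaged over two biological replicates.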
row,SMILES,relative growth
1,C[C@@H]1CCCCO[C@H](CN(C)S(=O)(=O)c2ccc(Cl)cc2)[C@@H](C)CN([C@H](C)CO)C(=O)c2cc(NC(=O)Nc3ccccc3)ccc2O1,inactive: 1.01
2,C[C@H](CO)N1C[C@H](C)[C@H](CN(C)Cc2ccc3c(c2)OCO3)Oc2ccc(NS(C)(=O)=O)cc2CC1=O,inactive: 0.978
3,CC(=O)N1C[C@H](O)C[C@H]1C(=O)O,inactive: 0.947
4,C[S+](C)CC[C@H](N)C(=O)O,inactive: 1.01
5,C[C@H](CO)N1C[C@H](C)[C@@H](CN(C)S(=O)(=O)c2ccc(F)cc2)Oc2ccc(NC(=O)Cn3cnnn3)cc2CC1=O,inactive: 1
6,O=C(N[C@@H]1C=C[C@H](CC(=O)N2CCOCC2)O[C@@H]1CO)c1ccc2c(c1)OCO2,inactive: 0.992
7,C[C@H]1CN([C@@H](C)CO)C(=O)Cc2cc(NC(=O)Nc3cccc4ccccc34)ccc2O[C@@H]1CN(C)Cc1ccc(Cl)c(Cl)c1,inactive: 0.996
8,O=C1N[C@H](Cc2c[nH]c3ccccc23)COC(=O)[C@@H](Cc2ccc(F)cc2)CC=CC[C@H]1CC(=O)N(CCO)Cc1ccccc1,inactive: 1.01
9,C[C@@H]1CN([C@@H](C)CO)C(=O)Cc2cc(NC(=O)C3CC3)ccc2O[C@H]1CN(C)C(=O)Nc1ccccc1,inactive: 0.965
10,C[C@H]1CN([C@@H](C)CO)C(=O)c2cc(NS(=O)(=O)c3cn(C)cn3)ccc2O[C@@H]1CN(C)CC1CC1,inactive: 0.974
11,COc1ccc(S(=O)(=O)N(C)C[C@H]2Oc3ccc(NS(=O)(=O)c4cn(C)cn4)cc3C(=O)N([C@@H](C)CO)C[C@@H]2C)cc1,inactive: 0.965
12,CS(=O)(=O)c1ccc(C(O)C(CF)NC(=O)C(Cl)Cl)cc1 (stereo not given),active: 0.0463
13,C[C@@H]1CCCCO[C@H](CN(C)Cc2ccc(C(F)(F)F)cc2)[C@H](C)CN([C@@H](C)CO)C(=O)c2cc(NS(=O)(=O)c3ccc(Cl)cc3)ccc2O1,inactive: 1.03
14,C[C@H]1CN([C@@H](C)CO)S(=O)(=O)c2ccc(C#Cc3cccc(F)c3)cc2O[C@H]1CN(C)S(=O)(=O)c1ccccc1F,inactive: 1.03
15,C[C@@H]1CN([C@H](C)CO)C(=O)Cc2cc(NC(=O)Cc3cn(C)c4ccccc34)ccc2O[C@@H]1CN(C)Cc1ccc(C(=O)Nc2ccccc2N)cc1,inactive: 1
16,C[C@H](CO)N1C[C@H](C)[C@H](CN(C)Cc2ccc(Oc3ccccc3)cc2)Oc2ccc(NC(=O)c3ccncc3)cc2CC1=O,inactive: 1.02
17,C[C@H](CO)N1C[C@H](C)[C@@H](CN(C)C(=O)Cc2ccccc2)OCCCC[C@H](C)Oc2ccc(NS(=O)(=O)c3cccs3)cc2C1=O,inactive: 0.995
18,C[C@@H]1CN([C@H](C)CO)C(=O)c2cc(NC(=O)Nc3ccccc3)ccc2O[C@H]1CN(C)S(=O)(=O)c1cn(C)cn1,inactive: 0.978
19,Cc1cc(C(=O)Nc2cccc3c2O[C@@H](CN(C)Cc2ccccc2)[C@@H](C)CN([C@H](C)CO)C3=O)n(C)n1,inactive: 0.967
20,COc1ccc2cc(C(C)C(=O)O)ccc2c1 (stereo not given),inactive: 1.18

row,SMILES,relative growth
1,COc1ccc(C#Cc2cccc(-c3nc(C(=O)N4CCN(Cc5ccccc5)CC4)cc4c3[C@@H](CCO)N(S(=O)C(C)(C)C)C4)c2)cc1OC (stereo not given in full),inactive: 1.04
2,COc1cccc(OC)c1C(=O)NC1C(=O)N2C1SC(C)(C)C2C(=O)[O-].[Na+] (stereo not given),inactive: 1.01
3,Cc1ccc(S(=O)(=O)Nc2ccc3c(c2)C(=O)N([C@H](C)CO)C[C@@H](C)[C@@H](CN(C)Cc2ccc(Oc4ccccc4)cc2)O3)cc1,inactive: 1.01
4,CO[C@H]1CN(C)C(=O)c2cc(NC(=O)Nc3ccccc3F)ccc2OC[C@H](C)N(CCC(F)(F)F)C[C@H]1C,inactive: 1.02
5,C[C@H](CO)N1C[C@H](C)[C@@H](CN(C)S(=O)(=O)c2cccc(F)c2)Oc2ncc(-c3cccc(C(=O)N(C)C)c3)cc2C1=O,inactive: 0.999
6,Cc1noc(C)c1S(=O)(=O)Nc1ccc2c(c1)C(=O)N([C@H](C)CO)C[C@@H](C)[C@H](CN(C)Cc1ccc(C(=O)O)cc1)O2,inactive: 0.991
7,COc1ccc2c3c([nH]c2c1)[C@@H](CO)N(C[C@]13CCN(CC1)CC1CCCC1)C(=O)CN1CCOCC1,inactive: 0.995
8,CNC[C@@H]1OCCCC[C@H](C)Oc2ccc(NC(=O)c3ccncc3)cc2C(=O)N([C@H](C)CO)C[C@H]1C,inactive: 0.986
9,COc1ccc(NC(=O)Nc2ccc3c(c2)C(=O)N([C@H](C)CO)C[C@H](C)[C@@H](CN(C)S(=O)(=O)c2ccc(F)cc2)OCCCC[C@H](C)O3)cc1,inactive: 1.04
10,C[C@@H]1CCCCO[C@H](CN(C)S(C)(=O)=O)[C@@H](C)CN([C@@H](C)CO)C(=O)c2cc(NS(=O)(=O)c3ccccc3)ccc2O1,inactive: 0.995
11,O=S(=O)([O-])c1cc(I)c(O)c2ncccc12.[Na+],inactive: 0.58
12,NCc1cccc(N2CCCCC2)c1,inactive: 0.995
13,CCS(=O)(=O)N1C[C@]2(CN(C2)S(=O)(=O)c2cn(cn2)C)c2c([nH]c3cc(ccc23)OC)[C@@H]1CO,inactive: 0.985
14,COCC(=O)N(C)C[C@@H]1Oc2cc(C#C[C@@H](C)O)ccc2S(=O)(=O)N([C@H](C)CO)C[C@H]1C,inactive: 0.963
15,CC(C)CC#Cc1ccc2c(c1)O[C@H](CN(C)CC1CCOCC1)[C@H](C)CN([C@@H](C)CO)S2(=O)=O,inactive: 1.03
16,CCc1nn(C)c2c(=O)c(=O)c2n(C)[nH]1,inactive: 1.03
17,CC(C)NC(=O)N(C)C[C@H]1Oc2ccc(NC(=O)C3CCCCC3)cc2C(=O)N([C@H](C)CO)C[C@@H]1C,inactive: 0.985
18,C[C@H](CO)N1C[C@H](C)[C@@H](CN(C)Cc2ccc(Cl)c(Cl)c2)Oc2ccc(NC(=O)Cc3ccccc3)cc2CC1=O,inactive: 0.961
19,C[C@@H]1CN([C@@H](C)CO)C(=O)c2cc(NC(=O)Nc3ccc(C(F)(F)F)cc3)ccc2O[C@@H](C)CCCCO[C@H]1CN(C)C,inactive: 0.999
20,COc1ccc(CN(C)C[C@H]2OCCCC[C@H](C)Oc3ccc(NS(=O)(=O)c4ccc(Cl)cc4)cc3C(=O)N([C@H](C)CO)C[C@H]2C)cc1,inactive: 0.982

# — the supplement of paper PMC9446081
